# Variants at the background level are over-represented here.
# B1: TPR 5TU (parent)
# chain: GGAUCUUCUCGAUCUAACAAAAAAGACAAAUCUGCCACAAAGCUUGAGAGCAUCUUCGGAUGCAGAGGCGGCAGCCUUCGGUGGCGCGAUAGCGCCAACGUUCUCAACUAUGACACGCAAAACGCGUGCUCCGUUGAAUGGAGUUUAUCAUG
# Variants of: B1
# Test: polymerase ribozyme fitness, log enrichment relative to wild type (log ratio); higher = more active; in vitro selection for triplet polymerase activity
# Summary of the method: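 Libraries of mutants in each subunit of a heterodimeric triplet polymerase ribozyme were generated by PCR and transcribed. In triplicate, each went through one in vitro selection round: annealing with biotinylated primer, partner subunit and triplets; frozen incubation at −7 °C; gel excision of extended constructs; streptavidin-bead capture; RT-PCR. Fitness, taken from Illumina sequencing of input and output libraries, is the logarithm of a genotype's enrichment over wild-type enrichment, averaged across replicates with inverse-variance weights. The logarithm is base 2, and genotypes needed ≥10 input reads and ≥1 read per output to be kept.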
row,Variant,polymerase ribozyme fitness (log ratio)
1,C27U G48U G67A G94A,≤ -4.2
2,A28U C32G C63U C75A G84A C131A U135C,≤ -4.2
3,A29C C38U G42U G81A G86A,≤ -4.2
4,A28C U31G C125G,≤ -4.2
5,A29U A64U C95U C114G,≤ -4.2
6,A28U A52C A91C G92U,≤ -4.2
7,C27U C99G G133U G141A C149G,≤ -4.2
8,A28C G86U A120G,≤ -4.2
9,A28C A73C U78G G86C A110U A113U A137C A138U,≤ -4.2
10,A28G G46A C57U U82C C93U A106U G126U A142C,≤ -4.2
11,A28U C93U C99U C108U C129G G133U,≤ -4.2
12,A29U A52U U53A G80A C87A G128U U146C,≤ -4.2
13,A29G A52U G86C A121G,≤ -4.2
14,C27U A28G A60G A98U G100A U135G,≤ -4.2
15,A28G A37C A64U U77G C85G G133A,≤ -4.2
16,C27U A29U U144C,≤ -4.2
17,A28C G68U C76A U77C G80A,≤ -4.2
18,A28G A29C C54U A60C U61C G68C C93U,≤ -4.2
19,A29G C76U G92A G126U A142U U144G,≤ -4.2
20,A29C C69U G92A A97C U104G A107U U151G,≤ -4.2
21,A28G A66C G92U C118U U135G,≤ -4.2
22,A28G G46A C85A A91G,≤ -4.2
23,A29C G59C U61G U77G U82C G86A,≤ -4.2
24,A29C C54A G70U,≤ -4.2

row,Variant,polymerase ribozyme fitness (log ratio)
1,A29G U82C G92A A122C G126U,≤ -4.2
2,A29U A39G C57G A66C C85G A91U,≤ -4.2
3,A28G G46U G59A G81C G83U,≤ -4.2
4,A29G C57U G84A U104C G128U,≤ -4.2
5,A28G G80A G141A,≤ -4.2
6,C27U U31A G48U C85U,-2.25
7,A28G C54U C93A U127A,≤ -4.2
8,A28U C35A G42A,≤ -4.2
9,A29G C32G G94A U101G,≤ -4.2
10,C27U A52U G65A C75A A115C,≤ -4.2
11,A29U C36U,≤ -4.2
12,A29C A73U C79U C93U A106G,≤ -4.2
13,A28U U56A G84A G86A C87A C108A A110U U145C,≤ -4.2
14,A28U C43U C87U U146A,≤ -4.2
15,A28U G42U C43G U53G U78C G92C G128U,≤ -4.2
16,C27U A40U U61G G67C U78G,≤ -4.2
17,A28U C85G C116G U134C C149G,≤ -4.2
18,A29C A98G C116A,≤ -4.2
19,A28G C38U U55A C57U G94C A106G C123A,≤ -4.2
20,A28U A29C U45A G58C C85U C105U A106G,≤ -4.2
21,C27U U44A G46A U56G G84U A106U,≤ -4.2
22,A29G U56A C87G C99G,≤ -4.2
23,A29G C51G A73G C85G,≤ -4.2
24,A29G U45C A52C U53G U134C G136U,≤ -4.2

row,Variant,polymerase ribozyme fitness (log ratio)
1,A28G C38U C103A G152A,≤ -4.2
2,A28U G48A G74C C96U C131A,≤ -4.2
3,A28U C38A C85G C118A G143C,≤ -4.2
4,A29C C54A G83A C95U G100C C125U,≤ -4.2
5,A28U A64U C79G C95U A113U C114U C125U,≤ -4.2
6,C27U G34C C93A G117A,≤ -4.2
7,C27U U55C G94U C108U,≤ -4.2
8,A28U U55A A97G,≤ -4.2
9,A28C A52U U55G C87G C125U G152A,≤ -4.2
10,A29G A47C C57U C95G C96G C99A,≤ -4.2
11,A29G A52C G92U A107G G143C U148G,≤ -4.2
12,C27G U77A A91U C116A U130A G133U,≤ -4.2
13,A28C U61A C96G U104G G128C G143C,≤ -4.2
14,A28U U104G,≤ -4.2
15,A29U A30G A49G A115G,≤ -4.2
16,A29G G86A G92A C95A A106C,≤ -4.2
17,A29C U56A G58A G59A A73U G126C,≤ -4.2
18,C27U C57A A66C G71A C96A U130A,≤ -4.2
19,A28U C32U G42C G84A A89G G92A C131A U148A,≤ -4.2
20,C27U A40U U61G G67C U78G C116U,≤ -4.2
21,A29G C32A C36U C85U C105A A113U G126U,≤ -4.2
22,A28U C99U A107C,≤ -4.2
23,A28G U55G G58C G88C G140U,≤ -4.2
24,A28G G48A G88U,≤ -4.2

row,Variant,polymerase ribozyme fitness (log ratio)
1,C27U U53A G67U C87G,≤ -4.2
2,A29C C57G C75U C93A C114G A120G G141U,≤ -4.2
3,A29U A41C U45A C103U A122G,≤ -4.2
4,A28U G50C C76U C85U C103A C118U U144G,≤ -4.2
5,C27U C36U C43G A52G G59U U61A G100U,≤ -4.2
6,A28G U53A C116U C118A,≤ -4.2
7,C27U A97G C131A U151C,≤ -4.2
8,A29G U31A C96U C114U G140C,≤ -4.2
9,A28U A66U A73G G86U C103G C116U G152U,≤ -4.2
10,A28U A49C C85G A122U,≤ -4.2
11,C27U A91G A147C G152U,≤ -4.2
12,A28U G50A C132U,≤ -4.2
13,A29U A49C C95A A120U G124U,≤ -4.2
14,A28G A29G C75G C87U U111G,≤ -4.2
15,A29U A30U A40C C75U C87G G133U U145A,≤ -4.2
16,C27U G50C U53A G92C U104G,≤ -4.2
17,A28C C43U A52C C54A C123U,≤ -4.2
18,C27U C63U C87A G141U,≤ -4.2
19,A29G G88U U90C U111G,≤ -4.2
20,A28U G92A G140C,-3.61
21,A28U C43G C75U C76G C95A U109A,≤ -4.2
22,A28G A29U A52C G68A G81C G100U A142U,≤ -4.2
23,A28G A41C U44C G84C C95U C105G G117U U139G G141U C149A,≤ -4.2
24,C27U C87A,≤ -4.2

row,Variant,polymerase ribozyme fitness (log ratio)
1,A29G U145G C149G,≤ -4.2
2,A28C A29U A107U A115G,≤ -4.2
3,A28C C32U A39C G46C U53A C96U A122G A137G,≤ -4.2
4,A28U G58C A64C G94U A98U C116U G117U C129U A137U,≤ -4.2
5,A28U C75A U78G G86U C99G U102G C116U U139A,≤ -4.2
6,C27U C32U U78G U145G,≤ -4.2
7,A28U U45A U61G G74U A106U A110U G140U,≤ -4.2
8,A28U C85U G92C A98C A142C,≤ -4.2
9,A28C C35G C69A C72A G126A,≤ -4.2
10,A28U A41C C96U G136U U144A,≤ -4.2
11,A29U A40C G48A U53A G80A,≤ -4.2
12,A28C C93U A120G U134A G141C,≤ -4.2
13,A28U U55G,≤ -4.2
14,A29C G94A A110U G124A A147U,≤ -4.2
15,C27U C76U,-1.42
16,C27U C87U G140C,≤ -4.2
17,A29G C57U G74A G94C C95A G126A,≤ -4.2
18,A29U A37C U61C C93G A115C G133A G141C,≤ -4.2
19,A28G A29U G65A A73U,≤ -4.2
20,A29C G58A C87G C93G G133A U145C,≤ -4.2
21,A29C C32G G48C G84U C96G A97U,≤ -4.2
22,A28U A52C A66G A121U U145G C149G,≤ -4.2
23,A28U A40C C75G C87A C95U C105G A121U,≤ -4.2
24,A28C C96A G124A G143C,≤ -4.2

row,Variant,polymerase ribozyme fitness (log ratio)
1,A28U A37C U55A U77G C85A C87G G112U A121G U144C,≤ -4.2
2,A28U G58C G88A G94A,≤ -4.2
3,A28U G42A A49C C72A C76G,≤ -4.2
4,A28C U31C U77A C93U A98G G117A,≤ -4.2
5,A28C U31A U53A,≤ -4.2
6,A28G A107G U144C,≤ -4.2
7,A28U C103G C105U C149A,≤ -4.2
8,A29C C36U G88U A106U G124C G128A A138C,≤ -4.2
9,A28U C57A C85G C95G G136A G140U C149G,≤ -4.2
10,A29U A39G G83A,≤ -4.2
11,A28U C75U U82G G86A G88C C108G G143A,≤ -4.2
12,A29C A37U G68C,≤ -4.2
13,A29C G71U G83C,≤ -4.2
14,A28U A39G C54A U77G C87A G94A A97G A150G,≤ -4.2
15,C27U G58A G70A C76A C93U,≤ -4.2
16,A28U A40C C54G U78G A89U G141U,≤ -4.2
17,A29G C131U,≤ -4.2
18,A28C G59A C87U,≤ -4.2
19,A29U C36U G74A A119C,≤ -4.2
20,A28G A30U U45A C54U C76G C96A,≤ -4.2
21,A28U A41U C79G G86A G136A G152A,≤ -4.2
22,A29C C54A C57U G74U C95A C105G U135A,≤ -4.2
23,A29C A30G A40C G141A,≤ -4.2
24,A28U U33A U61A U77C A89U C96A A106G U127C U139A G141U C149A,≤ -4.2

row,Variant,polymerase ribozyme fitness (log ratio)
1,A28G C63U G83A G92U G94A A142C,≤ -4.2
2,A28U A47C C76U U82G C95U,≤ -4.2
3,A29C A49C G50A C87G U102G G117A U127G,≤ -4.2
4,A28U U44G U82G C87U C114U G133A U146G,≤ -4.2
5,A28C G71U G74U U78A C99A,≤ -4.2
6,C27U A138G,-3.72
7,A29G G80C U90C C95G U101C C103A G143U,≤ -4.2
8,A28U C96U,-3.66
9,A29U A41U U148G,≤ -4.2
10,A29G G94U A97G C149U,≤ -4.2
11,A28G G48U G50C G94A C96G A110G,≤ -4.2
12,A28U C51A U77C G94A,≤ -4.2
13,C27U A39C G83A,≤ -4.2
14,A28U G74A C93A C125G A137C,≤ -4.2
15,A28U A39U C85U G133C A150U,≤ -4.2
16,A28G G68C C93U,≤ -4.2
17,A28C C35U A49C C116U C118A,≤ -4.2
18,A29C C36U A47C C57G G67C C108G A138G,≤ -4.2
19,A29C C57A C93U,≤ -4.2
20,C27U C32G A64G G92C G152U,≤ -4.2
21,A29U,-3.4
22,A29C,-3.73
23,A29G,-1.81

# Reference: the RNAGym collection of RNA variant scans (doi:10.1073/pnas.2313332121)
